In the supplement of paper PMC10126150:
Values marked as one replicate rest on one cluster of the flow cell; about a third of the high ones do not repeat.

Tested on: ATP
Experiment: switch fluorescence ratio, 500 uM ATP over buffer (Cy3 cluster intensity, sum of 5 cycles each) (fold (ratio)); higher = stronger signal-on switching upon ATP binding; sequences stand for … in TCGTCGGCAGCGTCAGATGTGTATAAGAGACAGTTTTTTTTTTTTTTTTTTTTTTTTT…TC
Conditions: aptamer strand: ATP DNA aptamer (quencher-CACCTGGGGGAGTATTGCGGAGGAAGG + anchor), 100 nM annealed; ATP concentration: 500 uM; one replicate
Procedure, shortened: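 Values give the fluorescence ratio for each switch-domain sequence, averaged from per-cluster ratios of summed target-cycle to summed buffer-cycle Cy3 intensity. The Cy3-labelled switching-strand clusters sat on a modified Illumina MiSeq flow-cell, were annealed to 100 nM quencher-labelled ATP aptamer, and were imaged in selection buffer, then after 15 min with 500 uM ATP at 22 °C. Five cycles ran with NaOH stripping and re-annealing between them, and clusters outside 100-1000 RFU were excluded.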
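Note: ATP exposure 15 min at 22 °C before imaging.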

Row | Sequence | switch fluorescence ratio
1 | TTTGCCTATC | 0.99
2 | GAGGGAGAA | 0.967
3 | CCCTTGCTGA | 0.977
4 | GTTGACCCAC | 1.34
5 | CGAGCAGAAA | 1.07
6 | GGGGTGACGC | 1.01
7 | TCAGGGCTTT | 1.02
8 | AATGGGGCAT | 0.992
9 | CCCAAGTGGG | 0.977
10 | TAGATGATAT | 1
11 | ATTATTCGTT | 0.977
12 | GACAGGATGG | 1.05
13 | TGACGTGAC | 1.14
14 | TTTGTCCTC | 1.01
15 | GGCATTTCGC | 1.05
16 | TCAATTTGCC | 1.02
17 | GAGAGCCGGT | 0.943
18 | ATTCTGCAGG | 1.07
19 | GAAAAATAAT | 0.969
20 | AGAGACCCTT | 1.05
21 | CAGGGAATCG | 1
22 | TTGATGATGC | 0.981
23 | AGACTTTAAC | 1.04

Row | Sequence | switch fluorescence ratio
24 | CAACAGAGTA | 1.01
25 | GGCAGTACTG | 1.08
26 | CTGCTTCGAG | 0.996
27 | CTTATCGCG | 1.02
28 | TAGGCAAAA | 1.11
29 | CTGGTAATGT | 1
30 | ACTTAAGAGC | 0.946
31 | GAGGGAAATT | 1.04
32 | CTCAGTGTCA | 1.03
33 | CCTTATTCCG | 2.01
34 | AGCTGTTGAA | 0.987
35 | CTGCTGGGTC | 1.02
36 | AACTCCTATA | 1.06
37 | AGGGGCTAA | 0.983
38 | ATCGTCCTTA | 0.973
39 | ATCATCTTAA | 0.989
40 | ATATATGGCG | 0.955
41 | AGTCCCACTG | 1.03
42 | TGAAGCTGGT | 0.999
43 | TTGTTACCTT | 1.11
44 | GCCGTTTACG | 1.01
45 | TTCATCAGGG | 1.04
46 | AGAGAAGGGG | 1.02

Row | Sequence | switch fluorescence ratio
47 | TCTCACCGGG | 1.32
48 | GGAGGTTTAG | 0.984
49 | CGGGAACAGT | 0.967
50 | TCCTTGACCC | 1
51 | CTGTTCCGAC | 1.42
52 | AGCGTAGGG | 1.03
53 | GACGCGACAG | 1.22
54 | CCACAAATGA | 1.1
55 | TGAGGCAATC | 4.16
56 | ACTGGTGCCG | 1.01
57 | AGCGGTAGTT | 0.982
58 | GGAGTTGTGT | 0.994
59 | AGTAACTGT | 0.987
60 | TGTTACAGTA | 1
61 | ATTTCTCCAG | 1.09
62 | TGAGCAGTCG | 0.966
63 | TAGCTATGGA | 1.03
64 | TCTGTCTTCT | 0.99
65 | CACGTTAAAC | 1.29
66 | ACGAGGCTGG | 1.01
67 | TTCGTTTGGT | 0.952
68 | ACGGCATATG | 1.03
69 | CAATGGTTT | 0.98

Row | Sequence | switch fluorescence ratio
70 | TCAAGCATGC | 1.06
71 | GGGGACTTAA | 1.01
72 | AGAATGTGTC | 1.03
73 | GTAGTGGACC | 0.986
74 | ATCATAAAAG | 0.989
75 | TAGGGCATGG | 1.07
76 | GGATCTTGGA | 0.964
77 | CCTGGGGTAC | 2.21
78 | TATGATGTG | 0.971
79 | TGTCTGAAAA | 1.01
80 | AGAAGGGGCC | 0.971
81 | GTTGGGCAGT | 1.01
82 | TGATTAAGTG | 0.954
83 | ATATGGATG | 1.06
84 | GAAGAGGGGC | 1.06
85 | CAGATAATGG | 0.982
86 | GAAGAGAGAC | 1.02
87 | AAAGTCAGT | 1.05
88 | GATTATAGGG | 0.997
89 | CTACTCAGCC | 1.06
90 | GAGGTTTCGG | 0.955
91 | AAGCTATAGG | 1.06
92 | TGAGAAGCCG | 1.05

Row | Sequence | switch fluorescence ratio
93 | CACCTAGGA | 0.987
94 | TGGAAATCTT | 1.01
95 | GGCTTTGAG | 0.972
96 | GAGTGGCGCT | 1.03
97 | ATCCCTCCAG | 1.44
98 | TTGATACATG | 1
99 | AACAGCAGTA | 1.07
100 | TGCCATCCTT | 1.11
101 | GCTTGGTTAC | 1.06
102 | TAGGATTCTA | 0.983
103 | ATTTATCTGC | 1.04
104 | TGTGCTAAC | 1.12
105 | TTAATAAATA | 0.966
106 | ACTGGCGAAT | 1.01
107 | GTTAGCTCTG | 0.989
108 | ACGCGACTAG | 1.05
109 | TAAAGCGTTA | 1.01
110 | CATGGTGCGT | 1.03
111 | AGGGACTCGA | 0.961
112 | TTATTGCATT | 0.989
113 | AACCTTAAGG | 1.03
114 | GCTCGTAAGC | 1.05
115 | GAGTTTTGT | 0.954

Row | Sequence | switch fluorescence ratio
116 | CTAGCAGGCA | 1.01
117 | GTAGCAACGT | 1.2
118 | AGCTTCCCCC | 1.7
119 | TATCCTTCCT | 3.01
120 | TTATTGGCTG | 0.935
121 | TGGCACAGTC | 1
122 | TTGATGTAGC | 0.964
123 | TACAGCAAC | 1.49
124 | AAGTCCGCGA | 4.09
125 | TGACTTGTCC | 1.05
126 | TTTGAGGTAC | 1.02
127 | ACCCTGGTAC | 1.03
128 | TCAATTTAAT | 0.926
129 | GACGGTTTCT | 0.995
130 | TATCTATAAA | 1.03
131 | TGAAGATTGA | 1.04
132 | GTACGGCATC | 1.14
133 | TATTCGGAC | 1.06
134 | AGGATGCAAT | 1.1
135 | ATTACAACGC | 1.14
136 | ATCAGATACG | 1.02
137 | GACATCGTGG | 0.986
138 | GTTATAAGCG | 0.933

Row | Sequence | switch fluorescence ratio
139 | TTATAGTGAG | 1.01
140 | TTGCGAGGAT | 0.995
141 | ATTAACGATA | 1.1
142 | GAATATAGAA | 1.01
143 | GAAAAATTGA | 0.964
144 | AAATTTAGTC | 1.01
145 | TAGGACTTTA | 1
146 | AGTTGTCCCG | 1.01
147 | AGATACTACC | 1.58
148 | AACAGACGTA | 1.07
149 | CGTTCCGGAG | 2.24
150 | TTCACATGAT | 1.02
151 | GGGCAGGCAA | 1.1
152 | GAAGAATGAT | 0.973
153 | AAATAATATC | 1.02
154 | CCATTCAGGC | 0.946
155 | GTTACGGTTA | 1.05
156 | ATAAGATCGT | 1.02
157 | GAAACCGCCG | 1.13
